Source: the supplement of paper PMC3334620
Whole data set: some 33,000 sequences, median “E-score (-0.5 to 0.5)” near -0.054, cut for the highest 2% near 0.35. This is one part of the list.

biological target: T1, Stb5 (UniProt P38699); test: PBM E-score (8-mer binding enrichment) (E-score (-0.5 to 0.5)); higher = stronger / more preferred TF binding; most listed sequences are background and not binding sites; conditions: protein concentration: 200 nM; construct: GST-full length
T1 sequence: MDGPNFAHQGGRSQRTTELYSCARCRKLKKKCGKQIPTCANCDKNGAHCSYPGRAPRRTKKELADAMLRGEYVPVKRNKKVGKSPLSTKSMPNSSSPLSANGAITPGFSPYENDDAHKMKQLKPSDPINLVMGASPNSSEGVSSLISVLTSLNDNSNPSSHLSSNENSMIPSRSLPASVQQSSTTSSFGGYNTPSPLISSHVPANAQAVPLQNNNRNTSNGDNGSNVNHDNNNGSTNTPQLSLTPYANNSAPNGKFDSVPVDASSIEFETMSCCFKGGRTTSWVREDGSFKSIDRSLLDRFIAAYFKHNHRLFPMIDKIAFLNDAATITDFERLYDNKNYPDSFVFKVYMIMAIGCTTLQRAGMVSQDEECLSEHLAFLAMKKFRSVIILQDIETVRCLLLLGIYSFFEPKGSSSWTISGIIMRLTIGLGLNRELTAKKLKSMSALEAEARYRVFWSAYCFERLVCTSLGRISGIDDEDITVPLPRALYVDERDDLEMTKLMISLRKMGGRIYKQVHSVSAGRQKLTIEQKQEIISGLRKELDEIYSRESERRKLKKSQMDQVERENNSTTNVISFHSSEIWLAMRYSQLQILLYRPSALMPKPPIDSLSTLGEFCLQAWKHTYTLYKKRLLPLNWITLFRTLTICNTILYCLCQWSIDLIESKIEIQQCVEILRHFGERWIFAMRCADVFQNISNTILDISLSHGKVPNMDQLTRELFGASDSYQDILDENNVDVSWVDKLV
Description: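 Universal 'all 10-mer' protein binding microarrays (Agilent AMADID 015681) probed with GST-tagged S. cerevisiae TFs (full-length or DBD) made by in vitro transcription/translation (PURExpress), about 100-200 nM. Bound TF was detected with fluorescent anti-GST. Each ungapped 8-mer (which stands for itself and its reverse complement) is scored by the PBM enrichment score (E-score), a modified Wilcoxon-Mann-Whitney statistic from -0.5 to +0.5, computed with the Universal PBM Analysis Suite. Scale: above 0.35 generally sequence-specific binding.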

Sequence	PBM E-score
GGCTCTGA	-0.283
GGTGTAAA	0.205
CTACACTA	-0.357
CTTACTTA	-0.0517
CACGTTAC	-0.15
ACAGGTCG	0.0428
AACCAACC	-0.168
ATAGTTAC	-0.135
AATTGTGG	-0.386
CGCCAGCA	0.0379
TATATGCA	-0.196
CAACAACA	-0.207
GTAGTAGA	-0.098
GCTGGCGA	-0.0669
ATGCCTCA	-0.178
CGGAGCAG	0.115
CAGTGGAC	-0.232
TAGTCGAA	-0.0837
AGTACGAA	-0.0773
ATGCCACC	0.06
CGGCGAGA	0.138
CTACATAC	0.0114
ATTATAGC	0.0539
AATGCCAG	-0.101
CCTGCATC	-0.139

Sequence	PBM E-score
ATGCGTAG	-0.0439
ACGATACT	-0.0934
AGTCGCAA	-0.117
ATTAATAG	-0.0404
AAGGCCCT	-0.145
CCCACCAA	0.0411
CTCAAAGC	-0.0111
AATCGGTA	0.262
AGTTGGAA	-0.121
GAATGTGA	0.0176
CATTCGCA	-0.0839
TCACCTAA	-0.0802
GAGAGCTC	-0.225
CTCCACTA	0.0133
AATCGCGT	-0.00793
ATCAGTTC	-0.181
AGATCCAG	-0.103
GACCTAAA	0.208
AGGTAGGA	-0.111
ACACGATA	0.106
GAAAGCAA	0.00425
TGGTCCAA	0.0428
CTAGGGAG	-0.225
CTAGAACA	0.0985
CCGTAAGA	0.238

Sequence	PBM E-score
ACCTTAGC	-0.196
GGGCCCCC	0.0572
TGAGCGAA	0.0158
AACCCCGA	0.473
AGGGTCAT	-0.253
AGCGTACG	0.0455
CTGGCTGA	-0.144
GTGTAGTA	0.064
AACGTCGT	-0.0144
TCAACCGA	-0.00247
CAGTATGG	-0.119
AAACTGGA	-0.0551
CATTACAA	-0.122
AAACATAT	-0.00796
CAGCGTAA	-0.168
CCACAGTC	-0.22
CGATCGTC	0.119
AAGTGCCA	-0.182
GGATGCAA	-0.0713
CGAAAAAC	0.0935
GTTGTGGA	-0.19
CCCGTCCC	0.298
GTAACTGA	-0.31
CGAGCATA	-0.142
CAAGGCTC	-0.243

Sequence	PBM E-score
GAACTGGC	-0.0133
ACTACGCG	0.0657
AGACCACA	-0.0795
CCGAATCG	0.136
AGAAGAGC	-0.128
AAACGTCG	0.173
AATTATGT	-0.0796
AGAGACGA	-0.0973
ACCGTTCC	0.273
CCGTGAGC	0.196
CACCAGTA	-0.15
GCAGTGGC	-0.117
ATAGGGGC	-0.0427
ACTGGCGC	-0.0545
CCCTTCTA	-0.218
CGCGGACG	0.27
GGCACAGA	-0.0495
AGCCGCCT	0.0174
ACTCTGAT	0.0813
ACGCTTTG	0.013
GCTATCCC	0.0835
AGCGTAAG	-0.00496
AGGACCAG	-0.23
ATCACGAG	-0.24
AAGCAAAT	-0.191

Sequence	PBM E-score
CAGCCTAG	-0.289
ATCGTTGC	-0.147
ATTGAACG	-0.00043
CTGGTAAA	-0.0707
ATGACTAC	-0.223
CTAAGCGA	-0.0741
GCGCAGCA	0.0948
GCTCCTAC	0.0251
CCAGTAAG	-0.113
AGCTAGGC	0.0259
ACGTCCCA	-0.36
CATGTCGC	0.0189
GGTACGGA	0.0961
AGGGTAGA	-0.181
ACTGCGAA	-0.0835
ACAAGATA	-0.171
CGCCAACG	0.131
AGCCCCCG	0.173
GGACGGAA	0.133
GGTTGCCA	-0.0319
GCAGCGAC	-0.0206
AGTGCTAT	-0.213
CAATGAGG	-0.338
CAATAGGC	0.0353
CTGTATGC	-0.06

Sequence	PBM E-score
GGGGGGAA	-0.0531
GAAAGATC	-0.00696
GAGGGGCA	-0.157
GGAAGGTA	0.0413
GAGTAACC	-0.0272
CCACCTCG	0.0784
AAAAGTAA	-0.129
ACTGCCTA	-0.203
ACATCCAG	-0.275
AGGTGAAT	0.0734
CGATAGCC	0.0261
CACGACGG	0.168
CCGAAAGG	0.163
CCTGTTCG	-0.199
GGGATTCA	0.0852
AACTTCAT	-0.185
TGTATGAA	0.0366
CTCGTATA	-0.154
CCAATGCA	-0.189
AGAGAAAC	-0.117
AGAACCCC	0.219
TAACGTCA	-0.278
CTGGGGCA	-0.314
GTAAACGA	-0.0384
GCGAGAAA	-0.225

Sequence	PBM E-score
GTGACTGA	-0.313
AACCGGCC	0.264
AAGGCGCA	-0.0282
GCGGTGTA	0.421
CTAGAAAG	-0.0959
AGATACCT	-0.0664
TGAATGAA	-0.0678
CGACTTTA	0.022
ATATCAGC	0.215
GGGCAATA	0.185
AACGTGTA	-0.181
AAAGACGG	0.168
CACTCAAA	-0.0629
CGGGCAGA	0.223
AGAAGACG	-0.0553
GAACAACA	-0.137
CTTTCTAC	-0.0885
CAGTGCGG	0.23
CTAAACTC	0.198
TCATTACA	-0.0362
ATTACATA	-0.322
AGATTACT	-0.0148
